# Results as given in PubChem BioAssay AID485344 (National Center for Advancing Translational Sciences (NCATS), 2010).
# Hit rate of the full screen: of about 340,000 compounds, about 6,900 (2%) were called active. Rule as the data show it: active = inhibition above about 30%; inactive = below that, where a call was filed. The entries are a selection whose mix differs from that of the whole data set. The source gives no active or inactive call for entries shown without one.
# Biological target: D(2) dopamine receptor (Homo sapiens) (UniProt P14416)
# Assay: HTS Assay for Allosteric Antagonists of the Human D2 Dopamine Receptor: Primary Screen for Antagonists; also: 0% is about no effect
# Conditions: HEK293 TREx D2 cells, calcium flux, dopamine EC80; at 10 µM; stronger effect = higher value
# Method in brief: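 In this primary screen, negative modulation is detected by tracking calcium flux after an EC80 dopamine challenge in inducible HEK293 T-REx D2 cells preexposed to test compound for 180 s.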
# Chain of UniProt P14416 (P14416 whole entry, looked up): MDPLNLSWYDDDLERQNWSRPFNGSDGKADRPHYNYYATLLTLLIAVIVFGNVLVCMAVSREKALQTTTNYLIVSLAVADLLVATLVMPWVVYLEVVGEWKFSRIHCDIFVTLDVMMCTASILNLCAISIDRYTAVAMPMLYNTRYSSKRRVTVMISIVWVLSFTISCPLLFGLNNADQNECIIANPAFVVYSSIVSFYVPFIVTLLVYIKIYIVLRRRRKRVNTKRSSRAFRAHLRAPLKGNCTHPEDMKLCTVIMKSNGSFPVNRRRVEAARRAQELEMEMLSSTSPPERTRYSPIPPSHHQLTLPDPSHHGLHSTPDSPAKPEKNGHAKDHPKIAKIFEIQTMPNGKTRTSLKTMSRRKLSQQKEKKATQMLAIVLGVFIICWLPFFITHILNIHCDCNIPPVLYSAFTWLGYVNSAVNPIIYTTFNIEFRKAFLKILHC
row,Structure (SMILES),inhibition
1,Cc1cc(O)c(C(c2cccc(F)c2)N2CCC(C)CC2)c(=O)n1Cc1ccco1 (stereo not drawn),-11.1%
2,CN(C1CCCCC1)S(=O)(=O)c1ccc(C(=O)Nc2sc3c(c2C(N)=O)CC(C)(C)NC3(C)C)cc1,26.9%
3,COc1ccc(N2CCN(C(=O)CSCc3nc(-c4ccccc4Cl)oc3C)CC2)cc1,8.35%
4,CCc1nc(-c2cc(S(=O)(=O)N3CCN(c4ccc(F)cc4)CC3)ccc2OC)no1,-3.65%
5,COc1ccccc1CNC(=O)c1cccn1-c1nnc(N2CCCC2)s1,4.71%
6,Cc1cccc(NC(=O)Cn2nc(-c3ccc(Cl)cc3)c3ccccc3c2=O)c1,23.9%
7,O=C(CSc1ccc2nc(-c3ccccc3)cn2n1)Nc1ccccc1C(F)(F)F,2.46%
8,Cc1cccc(NC(=O)C(=O)c2cc(C)n(-c3ccccc3)c2C)c1C,-25.7%
9,O=C(Nc1cccc(-c2nc3ncccc3o2)c1)c1ccc(-c2cccc(Cl)c2Cl)o1,20.1%
10,CCOc1ccc(N2CC(C(=O)Nc3ccc(S(=O)(=O)Nc4nccs4)cc3)CC2=O)cc1 (stereo not drawn),active: 31.9%
11,CCOc1cccc2cc(-c3nc4sc(C(=O)Nc5ccc(C)cc5)c(C)c4c(=O)[nH]3)c(=O)oc12,-16.6%
12,COc1ccc(C(=O)NCC(c2cccnc2)N2CCN(c3ccc(F)cc3)CC2)cc1 (stereo not drawn),22%
13,O=C(NCC(c1ccc(Cl)cc1)N1CCCCC1)c1ccc(F)cc1 (stereo not drawn),-21.9%
14,Brc1cccc(OCCCNC2CCCC2)c1,active: 57.6%
15,COc1cccc(-c2cc(C(F)(F)F)nc(-n3nc(C)c(Br)c3C)n2)c1,0.195%
16,Nc1nc(N)c(S(=O)(=O)c2ccccc2)c(Nc2ccc(Br)cc2)n1,11.2%
17,O=C(N/N=C/c1cccc(Br)c1)C1CC(=O)N(c2ccccc2)C1 (stereo not drawn),active: 35.4%
18,COc1ccc(-c2nc3sc(CCNC(=O)C(=O)Nc4cc(C)cc(C)c4)c(C)n3n2)cc1,0.979%
19,COc1ccc(N2CCN(C(=O)Cn3ncc4c3-c3cc(C)ccc3OC4)CC2)cc1,-7.27%
20,Cc1ccc(NC(=O)c2cccc(NC(=O)N3CCSc4ncccc43)c2)cc1Cl,-5.8%
21,CCN(C(=O)c1nn(-c2ccc(OC)c(Cl)c2)c(=O)c2c1c1ccccc1n2C)c1cc(OC)ccc1OC,-11.2%
22,CCOc1ccc(NC(=O)CN(C)S(=O)(=O)c2ccc3c(c2)c(=O)n(C)c(=O)n3C)cc1,11.2%
23,Cc1ccc(C(=O)NCC(c2cccs2)S(=O)(=O)c2cccs2)cc1C (stereo not drawn),-9.75%
24,O=C(NCc1ccc2c(c1)CCN2C(=O)c1ccncc1)c1cccc(Cl)c1,-21.7%

row,Structure (SMILES),inhibition
1,COc1ccc(NC(=O)c2sc3nc(C)c(C(=O)Nc4ccc(C)cc4C)c(-c4ccc(Cl)cc4)c3c2N)cc1,-11.2%
2,Cc1oc(-c2ccccc2F)nc1CS(=O)(=O)CC(=O)N1CCN(c2cccc(C(F)(F)F)c2)CC1,18.2%
3,O=C(Nc1ccc(S(=O)(=O)N2CCC(c3nc4ccccc4s3)CC2)cc1)c1ccc(F)cc1,-2.95%
4,Cc1ccc(NC(=O)C2Cc3ccccc3N2C(=O)c2ccccc2)cc1Cl (stereo not drawn),-26.6%
5,Cc1cc(C)c(S(=O)(=O)NCCc2cc3c(C)ccc(C)c3[nH]c2=O)c(C)c1,4.97%
6,CCOC(=O)N1CCC(NCCNC(=O)c2ccc(Cl)cc2)CC1,active: 59.1%
7,Cc1ccc(C)c(-n2nnc(-c3nc(-c4ccc(Cl)cc4)no3)c2N)c1,17.7%
8,CCCC(=O)NCCc1nc2ccccc2n1Cc1c(F)cccc1Cl,-3.96%
9,Cc1ccc(N(CC(=O)NCc2ccc(F)cc2)S(=O)(=O)c2cccs2)cc1,active: 45.6%
10,CC(=O)c1ccc(NC(=O)CSc2cn(CC(=O)N3CCCCC3)c3ccccc23)cc1,-7.71%
11,CCc1ccc(NC(=O)C2CCN(c3nnc(-n4c(C)ccc4C)s3)CC2)cc1,11.3%
12,CCOc1ccc(-c2cn(-c3ccc(OC)cc3)c(SCC(=O)Nc3ccccc3Cl)n2)cc1,6.72%
13,COc1ccc(F)cc1S(=O)(=O)NCCc1csc(-c2ccc(Cl)cc2)n1,-3.87%
14,CCC(=O)Nc1sc2c(c1C(=O)Nc1ccc(OC)cc1)CCC(C(C)(C)C)C2 (stereo not drawn),0.925%
15,c1ccc(-c2cn(-c3ccccc3)c3ncnc(N4CCN(c5ccccc5)CC4)c23)cc1,18%
16,COc1ccc(OC)c(NC(=O)CSc2n[nH]c(-c3ccccc3Cl)n2)c1,7.72%
17,Cc1cc(C)cc(Oc2c(C(F)(F)F)oc3c(CN4CCCC(C)C4)c(O)ccc3c2=O)c1 (stereo not drawn),10.8%
18,COc1ccccc1N1CCN(c2ccc3cc(S(=O)(=O)N4CCCCC4)ccc3n2)CC1,-4.13%
19,CCOC(=O)CC(NC(=O)c1cc2cc(Cl)ccc2oc1=O)c1ccc(C)cc1 (stereo not drawn),16.7%
20,CCOc1ccc(-n2nc(CO)c(C(=O)NCc3ccc(Cl)cc3)n2)cc1,16%
21,Cc1ccc(-c2nnc(SCCOc3ccccc3)o2)cc1,-12.3%
22,CC1CCN(C(=O)CSc2c3c(nc4cc(Cl)ccc24)CCCC3)CC1,7.54%
23,Brc1ccc(-c2ccc(CNCCSc3nnnn3-c3ccccc3)o2)cc1,3.72%
24,CCOc1ccc(-c2nc3c(c(SCC(=O)N4CCCCC4)n2)Cc2cc(C)ccc2O3)cc1,-2.34%

row,Structure (SMILES),inhibition
1,COc1ccc(CCNC(=O)CN(c2ccc(C)cc2)S(=O)(=O)c2ccc(OC)cc2)cc1,-10.5%
2,COc1ccc(N2CCN(CCCNC(=O)Nc3ccccc3Cl)CC2)cc1,16.7%
3,CCOc1ccc(CN2C(=O)c3ccccc3Sc3ccc(C(=O)N4CCN(C)CC4)cc32)cc1,1.38%
4,Cc1ccc(-c2nc3ccc([N+](=O)[O-])cc3[nH]2)cc1,active: 44.5%
5,CCC(Sc1nc2cc(OC)c(OC)cc2c(=O)n1Cc1ccc(Cl)cc1)C(=O)NCCOC (stereo not drawn),11.8%
6,Cc1cc(NC(=O)c2cccnc2)cc(-c2nc3cc(Cl)ccc3o2)c1O,1.34%
7,CCCN(CCC)CCCNC(=O)C(NS(=O)(=O)c1ccc2c(c1)CCC(=O)N2)c1ccccc1 (stereo not drawn),active: 44.7%
8,CN(C)S(=O)(=O)c1ccc2c(c1)c(=O)c(C(=O)N1CCN(c3cccc(Cl)c3)CC1)cn2C,1.9%
9,O=S1(=O)c2ccccc2N(Cc2ccc(Cl)cc2F)c2ccccc21,7.2%
10,COc1ccc(OC)c(NC(=O)CSC2=Nc3ccccc3C3=NC(CCC(=O)NCc4ccco4)C(=O)N23)c1 (stereo not drawn),-8.83%
11,CCC(=O)Nc1nnc(S(=O)(=O)N(C)Cc2ccc(Cl)cc2)s1,-15.3%
12,CCOC(=O)c1ccc(NC(=O)CN(c2ccc(C)cc2)S(=O)(=O)c2ccc(OC)cc2)cc1,19.5%
13,CCOc1ccccc1NC(=O)CSC1=Nc2ccccc2C2=NC(CC(=O)NC3CCCCC3)C(=O)N12 (stereo not drawn),-0.263%
14,COc1ccc(N2CCN(C(CNS(=O)(=O)c3c(C)cc(C)cc3C)c3ccco3)CC2)cc1 (stereo not drawn),2.27%
15,O=C(Cn1c(=O)n(Cc2ccc(F)cc2)c(=O)c2sc3ccccc3c21)NCc1ccccc1Cl,1.94%
16,N#Cc1c(C(F)(F)F)cc(-c2cccs2)nc1SCC(=O)Nc1ccc(Cl)cc1,-8.08%
17,Cc1ccn2c(Nc3ccc4c(c3)OCO4)c(-c3ccco3)nc2c1,-15.7%
18,Cc1cccc(N2CCN(S(=O)(=O)c3c(C)[nH]c(=O)[nH]c3=O)CC2)c1C,-24.3%
19,O=C(CCc1nc2ccccc2c(=O)[nH]1)Nc1cc(Cl)ccc1N1CCCCC1,active: 42.9%
20,COc1cc(C(=O)Nc2ccc(OCc3cc(=O)n4ccc(C)cc4n3)cc2)cc(OC)c1OC,26%
21,COc1cc(Nc2ncnc3onc(-c4ccc(Cl)cc4)c23)cc(OC)c1,4.29%
22,CCCn1c2ccccc2c2cnn(CC(=O)N(CCCOC(C)C)Cc3ccco3)c(=O)c21,18.1%
23,Cc1ccc(-n2c(=O)c3c(C)c(C)sc3n(CC(=O)c3ccc(Cl)cc3)c2=O)cc1C,-3.21%
24,Cc1cc(NC(=O)CCC(=O)N(Cc2ccccc2)C2(C(=O)NC3CCCCC3)CCCC2)no1,active: 44.5%

row,Structure (SMILES),inhibition
1,N#Cc1ccccc1CSc1nnc(-c2ccccc2)o1,6.2%
2,O=C(NCCc1c[nH]c2ccccc12)Nc1ccccc1C(F)(F)F,2.59%
3,O=C(CSc1nnc2scc(-c3ccccc3)n12)c1ccc2c(c1)OCCO2,active: 30.9%
4,COC(=O)c1cc(NC(=O)Cn2ncc3c2-c2ccccc2OC3)cc(C(=O)OC)c1,-7.1%
5,COc1cccc(CN2CCN(C3CCN(c4cccc(C)c4C)CC3)CC2CCO)c1 (stereo not drawn),active: 73%
6,Cc1cccc(CS(=O)(=O)CC2Nc3ccc(C(=O)NCc4ccccc4Cl)cc3NC2=O)c1 (stereo not drawn),6.07%
7,COc1ccc(-c2noc(-c3ccc(NC4CCCCC4)c([N+](=O)[O-])c3)n2)cc1OC,4.52%
8,CCc1cccc(C)c1NC(=O)Nc1csc2c1CCCC2,3.08%
9,Cc1ccc(C)c(NC(=O)CSc2nncn3c2cc2sccc23)c1,-14.2%
10,COc1ccc2sc(N(Cc3cccnc3)C(=O)c3ccco3)nc2c1,-18.4%
11,CCCCC/C=C/C1=CC(=O)C[C@H](c2ccc3c(c2)OCO3)C1,active: 30.8%
12,O=C1CN(C(=O)c2ccccc2)C(c2ccc(F)cc2)c2cc(Br)ccc2N1 (stereo not drawn),9.91%
13,CCCNC(=O)C1CCN(c2cc(C)nc3c(-c4ccc(OC)c(OC)c4)c(C)nn23)CC1,1.66%
14,COc1ccc(CN2C(=O)N(c3ccc(F)cc3)C(=O)C2CC(=O)Nc2ccccc2)cc1 (stereo not drawn),-4.12%
15,CCn1c(=O)cc(OCC(=O)NCc2ccc(F)cc2Cl)c2ccccc21,9.71%
16,CCOCCCNC(=O)c1c(NC(=O)c2cc(=O)c3cc(C)c(C)cc3o2)sc2c1CCC2,17.2%
17,CCOC(=O)c1ccc(N2C(=O)c3[nH]nc(-c4ccc(OC)cc4)c3C2c2ccc(C)cc2)cc1 (stereo not drawn),14.6%
18,Cc1ccc(CCNc2nc3ccccc3c3nc(-c4ccccc4)nn23)cc1,-11.4%
19,Cc1oc(-c2ccc(Cl)cc2)nc1CSc1nnc(C)n2c1cc1sccc12,17.5%
20,Cc1ccc(S(=O)(=O)c2cn(C)c3cc(N4CCCC4)c(F)cc3c2=O)c(C)c1,-11.5%
21,CCOc1cc(C(=O)Nc2c(NC)c3ccccc3oc2=O)cc(OCC)c1OCC,-4%
